{"source": "PubChem BioAssay AID588855", "about": "(National Center for Advancing Translational Sciences (NCATS), 2011)", "note": "Among all 410,000 compounds or so, about 5,000 (1.2%) were called active. This list was built around the results that the source calls inconclusive (neither active nor inactive); the mix of calls is not that of the screen. Calls come from the whole dose curve; as a rule, active = well fitted inhibition curve with a large enough effect; inconclusive = small, poorly fitted or top-dose-only effect; inactive = no such curve, though single readings can be large or run the other way. Where the call is inconclusive, the potency comes from a doubtful curve fit. Potency is the fitted concentration of half-maximal effect; tags give direction and shape of the fitted curve.", "data": [{"experiment": "qHTS for Inhibitors of TGF-b; note: nearly all actives have a fitted effect of over 65% in size", "conditions": "HepG2 CAGA-GFP TGF-b/SMAD3 reporter, GFP fluorescence, 18 h, TGF-beta stimulated, 500 pg/mL final; series mostly up to 46.1 µM", "method_in_brief": "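HEPG2 CAGA-GFP cells (1000/well, DMEM with 1% FBS) were pre-incubated 2 h at 37 degrees C, given compound by pin tool, then stimulated with TGF-beta at 500 pg/mL final for 18 h before per-cell GFP fluorescence imaging.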", "values": [{"smiles": "Cc1nc(-c2cccc(NS(C)(=O)=O)c2)cs1", "Potency": "inactive"}, {"smiles": "COc1ccc(-c2csc3ncnc(N4CCN(S(=O)(=O)c5cccs5)CC4)c23)cc1", "Potency": "inconclusive: 1.26 µM [inhibitor, full curve, poor fit]"}, {"smiles": "CCOC(=O)c1c(C)n(-c2ccccc2)c2ccc(OC(=O)c3cccc(OC)c3OC)cc12", "Potency": "inactive"}, {"smiles": "CCCC(=O)NC(c1ccccc1)c1c(O)ccc2ccccc12", "note": "(stereo not drawn)", "Potency": "inconclusive: 20 µM [inhibitor, single point]"}, {"smiles": "COc1ccc(OC)c(S(=O)(=O)N2CCCC2C(=O)N2CCc3ccccc3C2)c1", "note": "(stereo not drawn)", "Potency": "inconclusive: 2 µM [inhibitor, partial curve, poor fit]"}, {"smiles": "CC(=O)NC(Cc1ccc(F)c(F)c1)C(=O)NC1CCN(C(=O)c2ccc(C)cc2)CC1", "note": "(stereo not drawn)", "Potency": "inconclusive: 17.8 µM [inhibitor, single point]"}, {"smiles": "c1ccc(CNc2nc(-c3cccs3)nc3ccccc23)cc1", "Potency": "inconclusive: 35.5 µM [inhibitor, single point]"}, {"smiles": "COc1ccc(-c2cc(C(F)(F)F)nc(S(=O)(=O)CCCC(=O)Nc3cccnc3Cl)n2)cc1OC", "Potency": "inconclusive: 7.94 µM [inhibitor, partial curve, poor fit]"}, {"smiles": "CCCn1c(CN2CCN(c3cccc(Cl)c3)CC2)nc2c1c(=O)n(C)c(=O)n2C", "Potency": "inactive"}, {"smiles": "O=c1[nH]c(C2CCN(S(=O)(=O)c3ccc(S(=O)(=O)NC4CC4)cc3)CC2)nc2c1nnn2Cc1cccc(F)c1", "Potency": "inconclusive: 25.1 µM [inhibitor, partial curve, poor fit]"}, {"smiles": "O=[N+]([O-])c1cc(S(=O)(=O)C(F)(F)F)ccc1N1CCN(c2ccccc2)CC1", "Potency": "inactive"}, {"smiles": "Cc1ccc(NC(=O)/C=C/c2ccc3c(c2)OCO3)nc1", "Potency": "inactive"}, {"smiles": "CC(C)c1ccc(NC(=O)CN2C(=O)COc3ccc(S(=O)(=O)N4CCCCCC4)cc32)cc1", "Potency": "inconclusive: 6.31 µM [inhibitor, full curve, poor fit]"}, {"smiles": "Cc1cccc(NC(=S)Nc2ccccn2)c1", "Potency": "inconclusive: 12.6 µM [inhibitor, partial curve, poor fit]"}, {"smiles": "O=C(N/N=C/c1ccc(OC(F)F)cc1)c1ccc(Br)cc1", "Potency": "inconclusive: 5.62 µM [inhibitor, single point]"}, {"smiles": "C(=N\\Nc1ccc2ccccc2n1)/c1ccc2c(c1)OCO2", "Potency": "inconclusive: 20 µM [inhibitor, single point]"}, {"smiles": "CC1CC=CC2C1C(=O)N(Cc1ccccc1)C2c1ccc(-c2ccoc2)cc1F", "note": "(stereo not drawn)", "Potency": "inconclusive: 35.5 µM [inhibitor, single point]"}, {"smiles": "CN(C1CCCCC1)S(=O)(=O)c1ccc(SCC(=O)C(C)(C)C)nc1", "Potency": "inconclusive: 35.5 µM [inhibitor, single point]"}]}]}
